Results as given in the supplement of paper PMC8728848.
The other results are listed elsewhere or left out.

Assays:
Experiment in all cases: glycan array binding signal (z-score within array); higher = stronger binding
Conditions in all cases: glycan notation: IUPAC condensed, linker removed
[1] = molecular target: Fuc(a1-2)Gal(b1-4)[Fuc(a1-3)]GlcNAc(b1-2)Man(a1-3)[Fuc(a1-2)Gal(b1-4)[Fuc(a1-3)]GlcNAc(b1-2)Man(a1-6)]Man(b1-4)GlcNAc(b1-4)[Fuc(a1-6)]GlcNAc
Method in brief: (§1)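 The Consortium for Functional Glycomics database supplied 3228 glycan arrays, of which those lacking an available protein sequence were dropped. The binding signal, a within-array Z-score, was averaged across arrays of the same protein sequence and across linkers. Negative scores can be read as non-binding.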

[2] = molecular target: Fuc(a1-2)Gal(b1-4)[Fuc(a1-3)]GlcNAc(b1-2)Man(a1-6)[Fuc(a1-2)Gal(b1-4)[Fuc(a1-3)]GlcNAc(b1-2)Man(a1-3)]Man(b1-4)GlcNAc(b1-4)[Fuc(a1-6)]GlcNAc
Method in brief: as §1

[3] = molecular target: Fuc(a1-2)Gal(b1-4)[Fuc(a1-3)]GlcNAc(b1-2)[Fuc(a1-2)Gal(b1-4)[Fuc(a1-3)]GlcNAc(b1-4)]Man(a1-3)[Fuc(a1-2)Gal(b1-4)[Fuc(a1-3)]GlcNAc(b1-2)Man(a1-6)]Man(b1-4)GlcNAc(b1-4)GlcNAc
Method in brief: as §1

[4] = molecular target: Fuc(a1-2)Gal(b1-4)[Fuc(a1-3)]GlcNAc(b1-3)Gal(b1-4)[Fuc(a1-3)]GlcNAc
Method in brief: as §1

[5] = molecular target: Fuc(a1-2)Gal(b1-4)[Fuc(a1-3)]GlcNAc(b1-3)Gal(b1-4)[Fuc(a1-3)]GlcNAc(b1-3)Gal(b1-4)[Fuc(a1-3)]GlcNAc
Method in brief: as §1

[6] = molecular target: Fuc(a1-2)Gal(b1-4)[Fuc(a1-3)]GlcNAc(b1-3)GalNAc
Method in brief: as §1

[7] = molecular target: Fuc(a1-2)Gal(b1-4)[Fuc(a1-3)]GlcNAc(b1-3)[Neu5Ac(a2-6)Gal(b1-4)GlcNAc(b1-6)]Gal(b1-4)Glc
Method in brief: as §1

[8] = molecular target: Fuc(a1-2)Gal3S(b1-4)GlcNAc
Method in brief: as §1

[9] = molecular target: Fuc(a1-2)Gal6S(b1-3)GlcNAc
Method in brief: as §1

[10] = molecular target: Fuc(a1-2)Gal6S(b1-3)GlcNAc6S
Method in brief: as §1

[11] = molecular target: Fuc(a1-2)Gal6S(b1-4)Glc
Method in brief: as §1

[12] = molecular target: Fuc(a1-2)Gal6S(b1-4)Glc6S
Method in brief: as §1

[13] = molecular target: Fuc(a1-2)Gal6S(b1-4)GlcNAc
Method in brief: as §1

[14] = molecular target: Fuc(a1-2)GlcNAc
Method in brief: as §1

[15] = molecular target: Fuc(a1-2)[Gal(a1-3)]Gal
Method in brief: as §1

[16] = molecular target: Fuc(a1-2)[Gal(a1-3)]Gal(b1-3)GalNAc
Method in brief: as §1

[17] = molecular target: Fuc(a1-2)[Gal(a1-3)]Gal(b1-3)GalNAc(b1-3)Gal(a1-4)Gal(b1-4)Glc
Method in brief: as §1

[18] = molecular target: Fuc(a1-2)[Gal(a1-3)]Gal(b1-3)GlcNAc
Method in brief: as §1

[19] = molecular target: Fuc(a1-2)[Gal(a1-3)]Gal(b1-3)GlcNAc(b1-2)Man(a1-3)[Fuc(a1-2)[Gal(a1-3)]Gal(b1-3)GlcNAc(b1-2)Man(a1-6)]Man(b1-4)GlcNAc(b1-4)GlcNAc
Method in brief: as §1

[20] = molecular target: Fuc(a1-2)[Gal(a1-3)]Gal(b1-3)GlcNAc(b1-2)Man(a1-3)[Fuc(a1-2)[Gal(a1-3)]Gal(b1-3)GlcNAc(b1-2)Man(a1-6)]Man(b1-4)GlcNAc(b1-4)[Fuc(a1-6)]GlcNAc
Method in brief: as §1

[21] = molecular target: Fuc(a1-2)[Gal(a1-3)]Gal(b1-3)GlcNAc(b1-3)GalNAc
Method in brief: as §1

[22] = molecular target: Fuc(a1-2)[Gal(a1-3)]Gal(b1-3)GlcNAc(b1-6)GalNAc
Method in brief: as §1

[23] = molecular target: Fuc(a1-2)[Gal(a1-3)]Gal(b1-4)Glc
Method in brief: as §1

[24] = molecular target: Fuc(a1-2)[Gal(a1-3)]Gal(b1-4)GlcNAc
Method in brief: as §1

[25] = molecular target: Fuc(a1-2)[Gal(a1-3)]Gal(b1-4)GlcNAc(b1-2)Man
Method in brief: as §1

[26] = molecular target: Fuc(a1-2)[Gal(a1-3)]Gal(b1-4)GlcNAc(b1-2)Man(a1-3)[Fuc(a1-2)[Gal(a1-3)]Gal(b1-4)GlcNAc(b1-2)Man(a1-6)]Man(b1-4)GlcNAc(b1-4)GlcNAc
Method in brief: as §1

[27] = molecular target: Fuc(a1-2)[Gal(a1-3)]Gal(b1-4)GlcNAc(b1-2)Man(a1-3)[Fuc(a1-2)[Gal(a1-3)]Gal(b1-4)GlcNAc(b1-2)Man(a1-6)]Man(b1-4)GlcNAc(b1-4)[Fuc(a1-6)]GlcNAc
Method in brief: as §1

[28] = molecular target: Fuc(a1-2)[Gal(a1-3)]Gal(b1-4)GlcNAc(b1-3)GalNAc
Method in brief: as §1

[29] = molecular target: Fuc(a1-2)[Gal(a1-3)]Gal(b1-4)GlcNAc(b1-3)[Fuc(a1-2)[Gal(a1-3)]Gal(b1-4)GlcNAc(b1-6)]GalNAc
Method in brief: as §1

[30] = molecular target: Fuc(a1-2)[Gal(a1-3)]Gal(b1-4)GlcNAc(b1-6)GalNAc
Method in brief: as §1

[31] = molecular target: Fuc(a1-2)[Gal(a1-3)]Gal(b1-4)[Fuc(a1-3)]Glc
Method in brief: as §1

[32] = molecular target: Fuc(a1-2)[Gal(a1-3)]Gal(b1-4)[Fuc(a1-3)]GlcNAc
Method in brief: as §1

[33] = molecular target: Fuc(a1-2)[Gal(a1-3)]Gal(b1-4)[Fuc(a1-3)]GlcNAc(b1-3)GalNAc
Method in brief: as §1

[34] = molecular target: Fuc(a1-2)[Gal(a1-4)]Gal(b1-4)GalNAc
Method in brief: as §1

[35] = molecular target: Fuc(a1-2)[Gal(a1-4)]Gal(b1-4)GlcNAc
Method in brief: as §1

[36] = molecular target: Fuc(a1-2)[GalNAc(a1-3)]Gal
Method in brief: as §1

[37] = molecular target: Fuc(a1-2)[GalNAc(a1-3)]Gal(b1-3)GalNAc(a1-3)[Fuc(a1-2)]Gal(b1-4)GlcNAc
Method in brief: as §1

[38] = molecular target: Fuc(a1-2)[GalNAc(a1-3)]Gal(b1-3)GalNAc(b1-3)Gal(a1-4)Gal(b1-4)Glc
Method in brief: as §1

[39] = molecular target: Fuc(a1-2)[GalNAc(a1-3)]Gal(b1-3)GlcNAc
Method in brief: as §1

[40] = molecular target: Fuc(a1-2)[GalNAc(a1-3)]Gal(b1-3)GlcNAc(b1-2)Man(a1-3)[Fuc(a1-2)[GalNAc(a1-3)]Gal(b1-3)GlcNAc(b1-2)Man(a1-6)]Man(b1-4)GlcNAc(b1-4)GlcNAc
Method in brief: as §1

[41] = molecular target: Fuc(a1-2)[GalNAc(a1-3)]Gal(b1-3)GlcNAc(b1-2)Man(a1-3)[Fuc(a1-2)[GalNAc(a1-3)]Gal(b1-3)GlcNAc(b1-2)Man(a1-6)]Man(b1-4)GlcNAc(b1-4)[Fuc(a1-6)]GlcNAc
Method in brief: as §1

[42] = molecular target: Fuc(a1-2)[GalNAc(a1-3)]Gal(b1-3)GlcNAc(b1-3)GalNAc
Method in brief: as §1

[43] = molecular target: Fuc(a1-2)[GalNAc(a1-3)]Gal(b1-3)GlcNAc(b1-6)GalNAc
Method in brief: as §1

[44] = molecular target: Fuc(a1-2)[GalNAc(a1-3)]Gal(b1-4)Glc
Method in brief: as §1

[45] = molecular target: Fuc(a1-2)[GalNAc(a1-3)]Gal(b1-4)GlcNAc
Method in brief: as §1

B1: Gal 7 (Homo sapiens) (protein)
chain: MSNVPHKSSLPEGIRPGTVLRIRGLVPPNASRFHVNLLCGEEGGSDAALHFNPRLDTSEVVFNSKEGGSWGREERGPGVPFGRGQPFEVLIIASDDGFKAVVGDAQYHHFRHRLPLARVRLVEVGGDVQLDSVRIF
- glycan array binding signal (z-score) [1]: -0.182
- glycan array binding signal (z-score) [2]: 0.553
- glycan array binding signal (z-score) [3]: 0.182
- glycan array binding signal (z-score) [4]: -0.101
- glycan array binding signal (z-score) [5]: 0.159
- glycan array binding signal (z-score) [6]: 0.989
- glycan array binding signal (z-score) [7]: -0.263
- glycan array binding signal (z-score) [8]: -0.264
- glycan array binding signal (z-score) [9]: -0.241
- glycan array binding signal (z-score) [10]: 0.593
- glycan array binding signal (z-score) [11]: -0.204
- glycan array binding signal (z-score) [12]: -0.183
- glycan array binding signal (z-score) [13]: -0.328
- glycan array binding signal (z-score) [14]: -0.201
- glycan array binding signal (z-score) [15]: -0.317
- glycan array binding signal (z-score) [16]: -0.273
- glycan array binding signal (z-score) [17]: 0.431
- glycan array binding signal (z-score) [18]: 0.331
- glycan array binding signal (z-score) [19]: -0.015
- glycan array binding signal (z-score) [20]: 0.007
- glycan array binding signal (z-score) [21]: -0.115
- glycan array binding signal (z-score) [22]: -0.288
- glycan array binding signal (z-score) [23]: 0.681
- glycan array binding signal (z-score) [24]: 0.508
- glycan array binding signal (z-score) [25]: -0.249
- glycan array binding signal (z-score) [26]: -0.086
- glycan array binding signal (z-score) [27]: 0.088
- glycan array binding signal (z-score) [28]: -0.136
- glycan array binding signal (z-score) [29]: -0.267
- glycan array binding signal (z-score) [30]: -0.287
- glycan array binding signal (z-score) [31]: -0.29
- glycan array binding signal (z-score) [32]: -0.215
- glycan array binding signal (z-score) [33]: 0.143
- glycan array binding signal (z-score) [34]: -0.319
- glycan array binding signal (z-score) [35]: -0.283
- glycan array binding signal (z-score) [36]: -0.302
- glycan array binding signal (z-score) [37]: -0.275
- glycan array binding signal (z-score) [38]: -0.204
- glycan array binding signal (z-score) [39]: -0.071
- glycan array binding signal (z-score) [40]: -0.065
- glycan array binding signal (z-score) [41]: -0.066
- glycan array binding signal (z-score) [42]: 0.543
- glycan array binding signal (z-score) [43]: -0.122
- glycan array binding signal (z-score) [44]: 0.292
- glycan array binding signal (z-score) [45]: -0.286
